# PubChem BioAssay (NCATS)
# This list was built around the results that the source calls inconclusive (neither active nor inactive); the mix of calls is not that of the screen. For part of these data: Potencies of inconclusive entries are left out as doubtful fits. Active and inactive are the calls of the source. Calls follow the shape of the dose curve; as a rule, active = well fitted curve in the direction sought with a large enough effect; inconclusive = small, poorly fitted or top-dose-only effect, or another doubt; inactive = no such curve, though single readings can be large; an effect the other way counts as inactive or inconclusive.
# Assays:
# [1] = BET inhibitor-based combinations targeting novel dependencies in MECOM-rearranged (r) AML: OCI-AML3 cell line (AID 2202232); settings: CellTiter-Glo luminescence, 48 h; Potency: OCI-AML3 viability; viability (% of control): at 46 µM (top of the series); also: nearly all actives have a fitted effect of over 35% in size;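 as to viability (% of control): plate controls were DMSO vehicle wells for no effect and wells without cells for full effect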
# In short: (§1)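 Cells were plated at 500 per well and exposed to an 11-point dose series of each drug for 48 hr. Viability was measured by CellTiter-Glo luminescence, normalized to DMSO and empty-well controls, and summarized as AUC and per-cell-line Z-AUC.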
# [2] = BET inhibitor-based combinations targeting novel dependencies in MECOM-rearranged (r) AML: SET-2 cell line (AID 2202231); settings: SET-2 AML cells viability, CellTiter-Glo luminescence, 48 h; viability: active compounds read low, concentration not given here; also: nearly all actives have a fitted effect of over 35% in size;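 as to viability: plate controls were DMSO treated cells for no effect and wells without cells for full effect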
# In short: as §1
# [3] = BET inhibitor-based combinations targeting novel dependencies in MECOM-rearranged (r) AML: AML-191 cell line (AID 2202236; also: nearly all actives have a fitted effect of over 35% in size;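 as to viability (% of control): plate controls were vehicle wells for no effect and wells without cells for full effect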); settings: AML-191 viability, CellTiter-Glo luminescence, 48 h; series mostly up to 46 µM
# In short: as §1
# [4] = BET inhibitor-based combinations targeting novel dependencies in MECOM-rearranged (r) AML: UCSD-AML1 cell line (AID 2202235); settings: UCSD-AML1 AML cells viability, CellTiter-Glo, 48 h; viability (% of control): at 46 µM (top of the series); also: nearly all actives have a fitted effect of over 40% in size;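 as to viability (% of control): plate controls were DMSO vehicle wells for no effect and blank wells for full effect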
# In short: (§2)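 Activity is given as area under the curve and as Z-AUC, mean-centred within each cell line. It comes from 11-point dose curves normalized to DMSO and empty wells. CellTiter-Glo luminescence was read after 48 hr drug exposure of 500 cells/well.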
# [5] = BET inhibitor-based combinations targeting novel dependencies in MECOM-rearranged (r) AML: AML-194 cell line (AID 2202237; also: nearly all actives have a fitted effect of over 40% in size); settings: AML-194 (MECOM-r AML) viability, CellTiter-Glo, 48 h; series mostly up to 46 µM
# In short: as §1
# [6] = BET inhibitor-based combinations targeting novel dependencies in MECOM-rearranged (r) AML: MV-4-11 cell line (AID 2202233); settings: MV-4-11 AML viability, CellTiter-Glo luminescence, 48 h; viability, % of control: at 46 µM (top of the series) unless noted; also: nearly all actives have a fitted effect of over 45% in size;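 as to viability, % of control: plate controls were DMSO for no effect and blank wells for full effect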
# In short: as §2
# [7] = BET inhibitor-based combinations targeting novel dependencies in MECOM-rearranged (r) AML: HNT-34 cell line (AID 2202234); settings: HNT-34 AML viability, CellTiter-Glo luminescence, 48 h; series mostly up to 46 µM; also: nearly all actives have a fitted effect of over 35% in size;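 as to viability (% of control): plate controls were vehicle wells for no effect and cell-free wells for full effect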
# In short: as §2
# Potency is read from the fitted curve at half-maximal effect; tags tell the direction and shape of the fitted curve.
structure (smiles),measurement,setting,value
COCCOC(=O)N1CCN(S(=O)(=O)c2cc(F)c(Oc3ccc(Cl)cc3)c(F)c2)C(C(=O)NO)C1 (stereo not drawn),Potency,[1],active: 14.8 µM
O=C(NOCCO)c1ccc2cncn2c1Nc1ccc(I)cc1F,Potency,[2],active: 18.6 µM
same,Potency,[3],"inconclusive [inhibitor, partial curve]"
CCC(=C/[C@H](C)C/C=C/C(C)=C/[C@@H](C)C(=O)[C@@H](C)[C@H](O)[C@@H](C)C/C(C)=C/C(=O)O)/C=C/[C@@H]1OC(=O)C=C[C@@H]1C,Potency,[2],active: 0.0074 µM
same,Potency,[4],active: 0.0033 µM
same,Potency,[5],active: 0.0019 µM
N#Cc1ccc(Cn2cncc2CN2CCN(c3cccc(Cl)c3)C(=O)C2)cc1,Potency,[2],"inconclusive [inhibitor, partial curve]"
same,Potency,[5],"inconclusive [inhibitor, partial curve]"
Fc1ccc2[nH]ccc2c1-c1nc(N2CCOCC2)c2sc(CN3CCN(CC4CC4)CC3)cc2n1,Potency,[2],active: 23.5 µM
same,Potency,[3],active: 10.5 µM
c1ccc(-c2ccc(CNc3nc(-c4ccccn4)nnc3-c3ccccc3)cc2)cc1,Potency,[2],active: 2.35 µM
same,Potency,[5],active: 1.05 µM
CCn1nnc2c(N3CCOCC3)nc(-c3ccc(NC(=O)Nc4ccc(C(=O)N5CCN(C)CC5)cc4)cc3)nc21,Potency,[2],active: 1.86 µM
same,Potency,[3],"inconclusive [inhibitor, full curve]"
same,Potency,[5],"inconclusive [inhibitor, full curve]"
Nc1ccn([C@@H]2CS[C@H](CO)O2)c(=O)n1,viability,[2],inactive: 113%
same,Potency,[3],inactive
CN(C)CCCOc1ccc(-c2ccc3ncc4c(c3c2)n(C2CCOCC2)c(=O)n4C)cn1,Potency,[2],"inconclusive [inhibitor, partial curve, poor fit]"
same,Potency,[3],"inconclusive [inhibitor, full curve]"
same,Potency,[5],"inconclusive [inhibitor, full curve]"
CONC(=O)Nc1ccc(-c2sc3c(c2CN(C)Cc2ccccc2)c(=O)n(-c2ccccc2)c(=O)n3Cc2c(F)cccc2F)cc1,Potency,[1],"inconclusive [inhibitor, partial curve, poor fit]"
same,Potency,[6],"inconclusive [inhibitor, partial curve]"
same,Potency,[7],"inconclusive [inhibitor, single point]"
C[C@H]1CN(C2COC2)CCN1c1ccc(Nc2cc(-c3ccnc(N4CCn5c(cc6c5CC(C)(C)C6)C4=O)c3CO)cn(C)c2=O)nc1,Potency,[1],"inconclusive [inhibitor, partial curve, poor fit]"
same,Potency,[6],active: 14.8 µM
same,Potency,[7],"inconclusive [inhibitor, partial curve, poor fit]"
C[C@]12CC[C@@H]3c4ccc(O)cc4CC[C@H]3[C@@H]1C[C@@H](O)[C@@H]2O,Potency,[1],"inconclusive [inhibitor, full curve, poor fit]"
same,Potency,[6],"inconclusive [inhibitor, partial curve, poor fit]"
same,Potency,[7],inactive
Cc1ccccc1N1C(=O)c2cc(S(N)(=O)=O)c(Cl)cc2NC1C (stereo not drawn),Potency,[1],inactive
same,Potency,[6],inactive
same,Potency,[7],inactive
same,Potency,[4],inactive
CNC(=O)CN1CCC(Oc2cc3c(Nc4cccc(Cl)c4F)ncnc3cc2OC)CC1,Potency,[1],"inconclusive [inhibitor, single point]"
same,Potency,[6],"inconclusive [inhibitor, partial curve]"
same,Potency,[7],active: 16.6 µM
Cc1c(C)n(Cc2ccc(-c3ccccc3C(=O)O)cc2)c2ccc(C(=O)N[C@@H](C)c3ccc([N+](=O)[O-])cc3)cc12,Potency,[1],"inconclusive [inhibitor, partial curve, poor fit]"
same,"viability, % of control",[6],inconclusive: 87% [inhibitor]
same,Potency,[7],inactive
CC(=O)N[C@H]1CSSC[C@@H](C(N)=O)NC(=O)[C@H](C(C)C)NC(=O)[C@H](C)NC(=O)[C@H](Cc2cnc[nH]2)NC1=O,Potency,[1],inactive
same,Potency,[6],inactive
same,Potency,[7],inactive
COc1ccc([C@@H]2Sc3ccccc3N(CCN(C)C)C(=O)[C@@H]2OC(C)=O)cc1,Potency,[1],inactive
same,Potency,[6],inactive
same,Potency,[7],inactive
Cc1ccc(NC(=O)c2cccc(N(C)C)c2)cc1NC(=O)c1ccc(O)cc1,Potency,[1],"inconclusive [inhibitor, single point]"
same,"viability, % of control",[6],inconclusive: 100% [inhibitor]
same,Potency,[7],"inconclusive [inhibitor, partial curve]"
